The text below walks through data of the supplement of paper PMC3334620.

The full ranking holds about 33,000 sequences; the median of “E-score (-0.5 to 0.5)” is about -0.016, and the highest 2% start at about 0.31. Some of the results follow.

This assay concerns the target Cst6 (UniProt P40535). Put plainly: PBM E-score (8-mer binding enrichment) (E-score (-0.5 to 0.5)); higher = stronger / more preferred TF binding; most listed sequences are background and not binding sites. Particulars: protein concentration: 200 nM; construct: GST-DNA-binding domain. As to the method:
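Universal 'all 10-mer' protein binding microarrays (Agilent AMADID 015681) probed with GST-tagged S. cerevisiae TFs (full-length or DBD) made by in vitro transcription/translation (PURExpress), about 100-200 nM. Bound TF was detected with fluorescent anti-GST. Each ungapped 8-mer (which stands for itself and its reverse complement) is scored by the PBM enrichment score (E-score), a modified Wilcoxon-Mann-Whitney statistic from -0.5 to +0.5, computed with the Universal PBM Analysis Suite. Scale: above 0.35 generally sequence-specific binding.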
In the case of TACACACA, the “PBM E-score” value was 0.217. Then AACCAGTA, with 0.0474. For AAGTCTTA, the “PBM E-score” value was -0.0346. On to GTAACAAC, for which the “PBM E-score” value came to 0.0637.

With GGCGTGCA, the “PBM E-score” value was -0.191. Then GCTAACAA, with 0.0514; and AAACTGAT, with 0.0925. For ATCCGCAC the value was 0.123; for CACAATCA, 0.17. Regarding GGATACAC, the “PBM E-score” value was -0.132. For AGACGCAT the value was -0.0757. Then CCATAAAG, with 0.00545.

ATCTTGCC: the “PBM E-score” value was -0.00355. Regarding ACTTGTAG, the “PBM E-score” value worked out at 0.0293. For GACTTAGC the value was -0.229; for ACCTCGGC, -0.0335. Then ACAGTGCC, with 0.0277. For TCCTCGAA the value was 0.0889; for GAAAATTC, 0.146.

As to CGTAAGGC, the “PBM E-score” value amounted to 0.201. Turning to GAACCGCC, the “PBM E-score” value was -0.092.

In the case of TCCCCGGA, the “PBM E-score” value is -0.201. Then CTAGTTTC, with -0.0421; and CGTTCGCC, with -0.00224. Then CAGGGGAA, with -0.307; and AATTTTTC, with 0.163; and CGCACTCC, with -0.223. As to ACCCGAAT, the “PBM E-score” value is -0.0327. For CTGATAAC the value was 0.0135; for ATCTAAAA, 0.136; for AACGGACA, 0.035. For CCTAATGC the value was -0.0866. Then ACGGAGCC, with -0.171; and AGGCGTAC, with 0.0302; and ACTGACTG, with -0.0444. On to TAATACTA, for which the “PBM E-score” value is 0.245. For ATAGGAGG the value was -0.217; for TGGAATAA, 0.0238. For AGTGAGAA the value was 0.149; for GCTCGCTA, -0.132; for AGTACCAT, -0.116. For AATTCACT the value was 0.129; for AGCGCGCG, 0.103; for AAACCTCG, -0.136.

Turning to ACAGTCCT, the “PBM E-score” value was -0.131.

As for ATCCTCAC, the “PBM E-score” value stood at 0.115. For ATTGAAGA the value was 0.169; for ATTATGCC, 0.119; for CAGACATG, -0.00706. Then AGCTACCC, with -0.168; and CGACCGTC, with -0.0866. Then ACAACCGA, with 0.0196; and CGGTCGCC, with -0.183. Consider CTACACCC, for which the “PBM E-score” value was -0.306.

With GCGGCCAC, the “PBM E-score” value was -0.0514.

In the case of TCGCACCA, the “PBM E-score” value was -0.0988. Then GAGATTAC, with 0.312; and CGCACGGA, with 0.154. For CCCTCGCG the value was -0.016; for TAGTGCGA, -0.146. Consider TAGCTTGA, for which the “PBM E-score” value is -0.0745. For GACGAAGA the value was 0.194.

For the sequence ATAATTGA, the “PBM E-score” value was determined as 0.201. Then CGTGTAAC, with 0.0377; and ATCCCTCC, with -0.218; and CGGTATCC, with -0.274. For TTACCCAA the value was -0.0649; for ACCACACT, -0.0231.

Regarding CTGAGGGC, the “PBM E-score” value is -0.277. Then ATAAATAT, with 0.221; and GTCAACGA, with 0.124; and CGACCTGC, with -0.0991. Then CAGTGTGA, with 0.158; and CGATGTGC, with 0.0378; and AGTATCCA, with -0.123. Then ATCAAGAA, with 0.251; and AAGATGAA, with -0.0562. Turning to ACCCCTAT, the “PBM E-score” value is -0.00582. Then ATGCCTAG, with -0.154; and CAACCTCC, with -0.3. Then TAACGCCA, with 0.0789; and TGATTACA, with 0.305. Then AGCTACTG, with -0.015; and AACGAGCT, with -0.043; and AAACCTTC, with -0.165. AGTGGAAG: the “PBM E-score” value is -0.323.
